Experimental data as given in the supplement of paper PMC10338343.
± gives the standard deviation. Over roughly 6,600 sequences, “pre-steady-state target cleavage rate” has its median near 0.07; the highest 2% begin near 0.72. This is a selection; strong and weak results do not stand in their true shares.

system: MIWI (PIWIL1) piRISC loaded with Kctd7 piRNA (30 nt); assay: pre-steady-state target cleavage rate (min^-1); MIWI and MILI are mouse PIWI proteins and EfPiwi is from a freshwater sponge; tags in brackets are library labels; higher = faster piRNA-guided slicing of the target; settings: guide: Kctd7 piRNA 5'p-UGUUAAUCUCUCAGAGAAGGUGACAGUGAU; auxiliary factor: 500 nM mouse GTSF1
Method in brief: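 Sequencing of uncleaved targets, normalised to depth and to weakly complementary targets, was the readout of this Cleave-'n-Seq assay. A transcribed, DNA-blocked target RNA library (0.1 nM) was mixed with 1 nM active affinity-purified piRISC carrying one synthetic guide, with or without 500 nM GTSF1 partner protein, in HEPES–potassium acetate buffer at 33 °C for 0–8 or 0–960 min. Three trials were pooled, k3 was capped at 0.0001 min^-1, and a burst-and-steady-state fit gave the pre-steady-state cleavage rate.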

| Sequence | pre-steady-state target cleavage rate |
| --- | --- |
| UAGUGUGUCACCUACUCUGAGAGUUUAACA | 0.286 ± 0.059 |
| AUGUGUGUCACCUUCUCUGAGAGAUUUUGA | 0.121 ± 0.026 |
| AUCACUGUCACCUAGUCUGAGAGAUAUUGA | 0.0229 ± 0.009 |
| UAGUGUGUCACCUUCUCUGAGAGAUGUAACA | 0.228 ± 0.028 |
| UAGACUGUCAACCUUCUCUGAGAGAUUAACA | 0.282 ± 0.023 |
| UAGUGACAGACCUUCCCUGAGAGAUUAACA | 0.0526 ± 0.0082 |
| UAGUCUGUCACCUUCUGUGAGAGAUUAACA | 0.231 ± 0.019 |
| UAGACUGUCACGUUCUCUGAGAGUUUAACA | 0.0806 ± 0.014 |
| UUCACUGACACCUUCUCUGAGAGAUUAUCA | 0.2 ± 0.034 |
| UAGUCUGUCACCUUCACUCAGAGAUUAACA | 0.0361 ± 0.0082 |
| UAGUGACUCACCUUCUCUGAGAGAUUAACA [g2:g23:cont:t1A] | 0.514 ± 0.043 |
| UAGUGACACUGGUUCUCUGAGAGAUUAAGA | 0.0135 ± 0.003 |
| UAGUGAGUCACCUUCUGUGAGAGUUUAACA | 0.144 ± 0.02 |
| UAGUGAGUCACCUUCACAGAGAGAUUAACA | 0.046 ± 0.0076 |
| UACAGUGUCACCUUCUCUGUGAGAUUAACA | 0.259 ± 0.016 |
| UAGACUGUCACCUUCUGUGAGAGAUUUACA | 0.263 ± 0.025 |
| UAGUGAGUCACCUCUCUGAGAGAUUAACA | 0.241 ± 0.032 |
| UAGUCUGUCACCUUCUCUGAGAGAUUUUCA | 0.109 ± 0.019 |
| AUCACUGACACCUUCUCUGUGAGAUUAACA | 0.2 ± 0.014 |
| AUCACUGUCACCUUCUCUGAGAGAUAUAACA | 0.415 ± 0.053 |
| UAGUGUGUCACCUUCUCUCAGAGAUUUUGA | 0.0124 ± 0.006 |
| UAGUGAGUCACCUUCUCUGAGAGAUCAACA | 0.143 ± 0.027 |
| UACACUGUCACGAUCUCUGAGAGAUUAAGA | 0.0542 ± 0.013 |
| AUCACUGUCUCCAUCUCUGAGAGAUUAACA | 0.675 ± 0.041 |

| Sequence | pre-steady-state target cleavage rate |
| --- | --- |
| UUCACUGUGUCCUUCUCUGAGAGAUUUUGA | 0.0357 ± 0.0098 |
| UUCACUGUCUCCUUCACUGAGAGAUUAACA | 0.393 ± 0.032 |
| AUCACUGUCACCUUCUCUGAGAGAUCAACA | 0.315 ± 0.039 |
| UAGUGACAGUCCUUCUCUGACUGAUUAUGA | < 0.0001 |
| UAGUCUCACACCUUCUCUGAGAGAUUAAGA | 0.0327 ± 0.0072 |
| UAGUCUGUCACCUUGUCUGAGAGAUAAACA | 0.149 ± 0.02 |
| UAGUGUGUCAGCUUCUCUCAGAGAUUAACA | 0.088 ± 0.0099 |
| UAGUGAGUGACCUACUCUGAGAGAUUAACA | 0.298 ± 0.026 |
| UAGUCUCACACCUUCUCUGAGAGAUAUUGA | 0.00988 ± 0.0039 |
| UAGUCUCUGACCUUCUCUGAGAGAUUAACA | 0.145 ± 0.013 |
| UAGUGAGUCACCUUCUCUGAGAGAUUAACCA | 0.464 ± 0.039 |
| UACACUGUCACCAUCUCUGAGUGAUUAACA | 0.0178 ± 0.0035 |
| UUCACUGUCACCUAGACUGAGAGAUUAACA | 0.04 ± 0.0094 |
| UAGUGUGUCACCUUCUCUGAGACGAUUAACA | 0.0199 ± 0.0093 |
| UAGUGUGUCACCUUCUCAGAGAGAUUAUGA | 0.0716 ± 0.02 |
| UAGUGACAGACCUUCUCUGCGAGAUUAACA | 0.0382 ± 0.0066 |
| UAGUGUGUCACCUUCUCUGAGUCUUUUUGA | 0.0618 ± 0.021 |
| UAGACUGUGACCUUCUCUGAGAGAUUAUCA | 0.246 ± 0.033 |
| UAGUGAGUCACCUUCUCUGAGAGAUUCACA | 0.0972 ± 0.026 |
| UAGUGUGUCACCUUCUGUGAGACAUUAACA | 0.0178 ± 0.0067 |
| UUCUGUGUCACCUUCUCUGAGAGAUUAAGA | 0.16 ± 0.026 |
| UAGUGACUCUCCUUCUCUGAGAGAUUAUCA | 0.0494 ± 0.0084 |
| UACACUGUCACCUUCUCUGUGAGAUAAACA | 0.103 ± 0.012 |
| UAGUGAGACACGUUCUCUGAGAGAUUAACA | 0.379 ± 0.026 |

| Sequence | pre-steady-state target cleavage rate |
| --- | --- |
| UAGUGACACUCCUUCUCUGAGAGAUUAACA | 0.329 ± 0.026 |
| UAGUGUCAGACCUUCUCUGAGAGAUUAAGA | 0.0434 ± 0.012 |
| UAGUGAGUCAUCCUUCUCUGAGAGAUUAACA | 0.132 ± 0.012 |
| UAGUCUGUCUCCUUCUCUGAGACAUUAACA | 0.0287 ± 0.0064 |
| UACACUGUCACCUUCUCUGAGAGCAUUAACA | 0.343 ± 0.032 |
| UACACUGUCACCUUCUCUCAGAGAUAAACA | 0.0525 ± 0.011 |
| UAGUGACUCACCUUCUCUGACAGAUUAUCA | 0.087 ± 0.015 |
| UAGUGUGUCAGCUUCUCUGACAGAUUAACA | 0.174 ± 0.028 |
| UACUGUGUCACCUUCUCUGAGAGAUUAACA | 0.63 ± 0.027 |
| UACACUGUCACCAUCUCUGAGAGAUAUUGA | 0.00944 ± 0.0048 |
| UAGUGACUGACGUUCUCUGAGAGAUUAACA | 0.0452 ± 0.0081 |
| UAGUGACAGACCUUCUCUGAGAGAUUCACA | 0.0961 ± 0.022 |
| UUCACUGUCAACCUUCUCUGAGAGAUUAACA | 0.271 ± 0.019 |
| UAGUGACUCAGCUUCACUGAGAGAUUAACA | 0.158 ± 0.025 |
| AUCUCUGUCACCUUCUCUGAGAGUUUAACA | 0.711 ± 0.12 |
| UAGUGUGUCACCAUCUCUGAGAGAUUAAGA | 0.0632 ± 0.015 |
| UAGUCUGUCACCUUCUCUGACAGAAUAACA | 0.0183 ± 0.0055 |
| UAGUCUGUCUCCUUCUCUGAGAGAUUUACA | 0.199 ± 0.029 |
| UAGUCUCUCACCUUCUCUGAGUGAUUAACA | 0.0299 ± 0.0065 |
| AUCUCUGUCACCUUCUCUGAGAGAUUAAGA | 0.119 ± 0.021 |
| UAGUGACACACCUUCUCUGUGAGAAUAACA | 0.0281 ± 0.0073 |
| AACACUGUCACCUUCUCUGAGUGAUUAACA | 0.0448 ± 0.0074 |
| UAGACUGUCACCUUCUCUGAGAGAUUUACA | 0.369 ± 0.049 |
| UUCUCUGUCACCUUCUCUGAGACAUUAACA | 0.29 ± 0.024 |
